# Assay results: the supplement of paper PMC10126150
# Sequences with one replicate were seen in a single cluster, so their values are uncertain.
# System: ATP
# Test: switch fluorescence ratio, 500 uM ATP over buffer (Cy3 cluster intensity, sum of 5 cycles each) (fold (ratio)); higher = stronger signal-on switching upon ATP binding; sequences stand for … in TCGTCGGCAGCGTCAGATGTGTATAAGAGACAGTTTTTTTTTTTTTTTTTTTTTTTTT…TC
# Settings: aptamer strand: ATP DNA aptamer (quencher-CACCTGGGGGAGTATTGCGGAGGAAGG + anchor), 100 nM annealed; ATP concentration: 500 uM; one replicate
# How it was run: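 Values give the fluorescence ratio for each switch-domain sequence, averaged from per-cluster ratios of summed target-cycle to summed buffer-cycle Cy3 intensity. The Cy3-labelled switching-strand clusters sat on a modified Illumina MiSeq flow-cell, were annealed to 100 nM quencher-labelled ATP aptamer, and were imaged in selection buffer, then after 15 min with 500 uM ATP at 22 °C. Five cycles ran with NaOH stripping and re-annealing between them, and clusters outside 100-1000 RFU were excluded.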
# 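Also: ATP exposure 15 min at 22 °C before imaging.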
row,Sequence,switch fluorescence ratio
1,CCGAGTTAAA,1.3
2,GCAATAAGTC,1.54
3,AGTCCTTATG,0.954
4,GGGGAAAGG,0.989
5,AACATGGACC,1.05
6,CCAGACAGGA,0.986
7,TCGAGGTGTT,1
8,CCAACCATTT,0.978
9,CGAAAGGGAG,1.03
10,AGTTTCCCGG,1
11,TGTCTTTAGG,0.974
12,TGTAGCGCGG,0.985
13,ATAGAGCGCG,1.05
14,GCGACGATAG,1.02
15,TCCATCGCGG,2.03
16,ATACCAATAA,1.17
17,TACCTCTTTT,1
18,CCCACTAAG,1.04
19,TGCAAGTCAC,1.01
20,GCTGAGTGTA,1.04
21,CTACGTGGCT,1.04
22,CGTCGTCCTC,1
23,AGTATGATCT,0.955

row,Sequence,switch fluorescence ratio
1,AAGAGAAATT,0.956
2,TTTTGCCAGA,0.989
3,CGTACGGGAA,1.01
4,AGGTCGCACG,1.02
5,ACCGGTAATC,1.07
6,TTAGATGGGC,1.02
7,TCCTGAGCTA,1.04
8,ACCGAGTCAG,1.25
9,TTGGAAAGAG,1.05
10,GCTCTCTAAT,1.05
11,TGTATGCCTC,1.02
12,CATAAAGGA,1.02
13,AGCTGTCGG,0.984
14,CTTGTAAGAC,2
15,ATCTAGTAGG,0.973
16,CCCGAGATGA,1
17,TAGGTCTTGT,0.966
18,GGTCGAGACG,0.962
19,CAAAATGCGA,2.36
20,TCATCAGCG,1.09
21,TGGGCCACCC,1.07
22,ATTGCGTCTT,1.04
23,ACTGTTAATC,1.03

row,Sequence,switch fluorescence ratio
1,TTCCTCAGCT,2.64
2,CTCTGGGTAT,1.06
3,ATAGGGTCAT,1.02
4,AGCAAGTTTT,0.99
5,AGAAGCATTA,1.06
6,AGAAATGCTT,0.964
7,CATCGGCATA,3.56
8,TACTTGAATC,1.04
9,GATCCTAGTA,1.02
10,TAAGAGCAAG,1.1
11,CGAGTGCCGT,0.955
12,TGCGGTCTCG,0.97
13,GTGTACCCT,1.02
14,AATTCAATC,1.02
15,CAAGCAGGGG,1.31
16,CGACAGGCGC,1.06
17,TCCGACTCCT,1.88
18,GGTTTGAGAT,0.966
19,GATGCCCCTC,1.02
20,ATTACATTGG,0.985
21,ACACAGATCA,1.03
22,TTAAGACAGC,1.02
23,TTTGCGCATT,1.05

row,Sequence,switch fluorescence ratio
1,ATAGGGCGTT,1.01
2,GGCAAACATG,1.05
3,AGACAATCGC,1.07
4,ACGAAGTTTG,1.01
5,TACTCTTGTC,0.949
6,CGTAGCTATT,2.67
7,AGGCGAGATT,0.965
8,ACCGCTGGGG,1.83
9,TATTTCCCGG,0.967
10,TGCGAAGAAT,1.08
11,CAAAACGTTA,1.03
12,TGGACGGTTC,1.04
13,GTTCTTATCC,1.03
14,CAATCACTCA,1.06
15,AAATATCCCT,1.11
16,CTGACATGTA,0.995
17,GCAATCCGTC,1.11
18,CAGGGTGGAA,0.993
19,TCACAAGATG,0.997
20,CCAGGCCTGG,0.961
21,CTTGTGTCTT,1.01
22,AATTAGAGGC,1.02
23,GTACCCCCTC,1.04

row,Sequence,switch fluorescence ratio
1,CCTTGAAA,0.977
2,TCAGCTCAT,1.01
3,TGTTGGCTT,0.94
4,CTTCGCTGGA,1.09
5,TGGGTCTATC,1.02
6,GAGTCACTAT,1.01
7,GTGTCCTTCT,0.998
8,TCTTTCGTGT,0.964
9,TGAACTAGCG,1.04
10,GACGTCTGGA,0.994
11,CGGGTTTAGC,0.975
12,TTATGTGCCC,0.999
13,GGGGGGCTT,0.979
14,GGGTCTGTTT,0.948
15,TTTCTGCGAT,1.23
16,GCAGATCATT,0.969
17,AAACGTTAGG,1.03
18,CCCTTCTCGG,1.05
19,AGTATACCCC,1.09
20,ATCACGGGTA,1.02
21,TTGATGGT,0.978
22,ATCTCGAGAC,1.01
23,ATACCCGGGA,1.08

row,Sequence,switch fluorescence ratio
1,CCGCATTGTA,2.72
2,ATCACACCGG,1.05
3,CGGGAGGCAG,1.08
4,CTCAAGGGTG,1.36
5,ATTATGCAC,1.09
6,AATCAACTAT,0.983
7,TTCAAGCCGA,0.98
8,CCTTTAGTAC,1.57
9,GCTTTAGCTT,1.02
10,GCAGCGGCGA,1.06
11,TTCACAGAGG,0.996
12,TAGGAGCAGA,0.994
13,ATTGGAGTTC,0.997
14,TAAGAATCGT,1.02
15,GTAGTTCTTG,0.998
16,TTAAGAGGT,1.02
17,GAAAATATCG,1
18,GGCGGGTTAA,1.01
19,GGGTTAGTCA,0.956
20,GCTCCGGCTT,1.1
21,TACGGACATA,1.21
22,GTCTGGGATA,0.974
23,TTGGATTCCG,0.967

row,Sequence,switch fluorescence ratio
1,AGTCCCCCAA,1.63
2,AATGAACTTA,1.06
3,GAATAGTCGC,0.984
4,AATGCTCATT,0.949
5,CATCTGGAAC,1.38
6,TTTAGGCGAA,1.04
7,TTTGTTGCTA,0.976
8,TGAGGGTAAA,1.02
9,TGGAAGTTTG,1
10,CGTTGTTCTT,0.987
11,TGGTAAAGG,0.998
12,AAGATTGTAT,0.964
13,ACGTGTTTTC,1
14,CGCATGAGTC,1.22
15,ACGTTTTG,0.981
16,TAGGTTTTTA,1.03
17,TACCCTGTCC,1.24
18,TAGTCTAGTC,0.975
19,ATTCCCCGCT,0.987
